Experimental data reported in patent US11608380B2, “Anti-EGFRvIII antibodies and uses thereof” (REGENERON PHARMACEUTICALS, INC., priority 2014, dated 2023).
Where two headings read alike, the source gives them in different places.

Legend:
Control peptide = experiment: Antibody specificity by ELISA; conditions: ELISA binding, irrelevant peptide
Procedure: (§1) To further characterize anti-hEGFRvIII mAbs, their binding specificity was examined by ELISA. […] For the junctional peptides that were linked to biotin either at C-terminal (SEQ ID NO:149) or N-terminal (SEQ ID NO:150) via a linker, plates were pre-coated with avidin. Also, coated was an irrelevant peptide (control peptide) with or without biotin at its N-terminal. Anti-EGFRvIII antibodies as well as an isotype control antibody were added to coated plates and allowed to incubate for 1 hour at 25° C. The plates were then washed and bound anti-EGFRvIII mAbs were detected with anti-human Fc antibodies conjugated with horse-radish peroxidase (HRP). Plates were developed with a tetra-methyl-benzidine (TMB) substrate solution to produce a colorimetric reaction and neutralized with sulfuric acid before reading absorbance at 450 nm on a VICTOR™ X5 plate reader. Data analysis used a sigmoidal dose-response model within PRISM™ software. […] NT: Not tested. Controls I-III: As described above.

[1] = tested on: N-term Biotin control peptide; experiment: Antibody specificity by ELISA; conditions: ELISA binding, irrelevant peptide with N-terminal biotin
Procedure: as §1

N-term biotin J-peptide = N-term biotin J-peptide (Homo sapiens, UniProt P00533, DELINS30-297G); experiment: Antibody specificity by ELISA; conditions: ELISA binding, avidin pre-coated plates
Procedure: (§2) To further characterize anti-hEGFRvIII mAbs, their binding specificity was examined by ELISA. […] For the junctional peptides that were linked to biotin either at C-terminal (SEQ ID NO:149) or N-terminal (SEQ ID NO:150) via a linker, plates were pre-coated with avidin. Also, coated was an irrelevant peptide (control peptide) with or without biotin at its N-terminal. Anti-EGFRvIII antibodies as well as an isotype control antibody were added to coated plates and allowed to incubate for 1 hour at 25° C. The plates were then washed and bound anti-EGFRvIII mAbs were detected with anti-human Fc antibodies conjugated with horse-radish peroxidase (HRP). […] Data analysis used a sigmoidal dose-response model within PRISM™ software.

C-term biotin J-peptide = C-term biotin J-peptide (Homo sapiens, UniProt P00533, DELINS30-297G); experiment: Antibody specificity by ELISA; conditions: ELISA binding, avidin pre-coated plates
Procedure: as §2

[2] = target: junctional peptide (J-peptide) (Homo sapiens, UniProt P00533, DELINS30-297G); experiment: Antibody specificity by ELISA; conditions: ELISA binding
Procedure: as §2

EGFRvIII-mmh = EGFRvIII-mmh (Homo sapiens, UniProt P00533, DELINS30-297G); experiment: SPR (BIACORE) binding kinetics, mAb-capture format; conditions: 37° C., NB=no binding
Procedure: (§3) Measurements were conducted on a T100 BIACORE™ instrument. […] In the receptor-capture format, either EGFRvIII-mFc or EGFR-mFc, was captured on the BIACORE™ chip and the respective antibodies flowed over. Kinetic association (ka) and dissociation (kd) rate constants were determined by processing and fitting the data to a 1:1 binding model using Scrubber 2.0 curve fitting software. Binding dissociation equilibrium constants (KD) and dissociative half-lives (t1/2) were calculated from the kinetic rate constants as: KD (M)=kd/ka; and t1/2 (min)=ln 2/(60*kd).

HEK293 cells = experiment: FACS cell binding selectivity; format: cell-based; conditions: secondary PE-labeled anti-Fc, 10 μg/ml
Procedure: To determine the specificity of the anti-EGFRvIII mAbs, their binding to HEK293, HEK293 cells expressing EGFRvIII (HEK293/EGFRvIII) and A431 cells, was analyzed by fluorescence activated cell sorting (FACS). HEK293/EGFRvIII cells were prepared by transfecting HEK293 cells with neomycin resistant DNA vectors constitutively expressing full-length hEGFRvIII (SEQ ID NO:147) using LIPOFECTAMINE™ 2000 transfection reagent (INVITROGEN™). At two days post-transfection, cells were placed under G418 selection for approximately two weeks. Populations positively expressing EGFRvIII were isolated via fluorescence activated cell sorting (FACS). The HEK293 cells expressing ˜3×10^6 copies of EGFRvIII per cell were used in the experiment. Briefly, the anti-EGFRvIII antibodies at 10 μg/ml were incubated with cells for 30 minutes at room temperature, washed, incubated with secondary antibody, i.e., phycoerythrin (PE)-labeled goat F(ab′)2 against human IgG (cat #109-116-170, Jackson ImmunoResearch Laboratories), followed by a final wash before FACS analysis. In another set of experiment, anti-EGFRvIII antibodies were directly conjugated via their lysine residues with the fluorescent dye, ALEXA FLUOR® 488 Dye (INVITROGEN™), thereby eliminating the step using the secondary antibody. […] Controls I, II, III, IV and V are described above. MFI: Mean Fluorescence Intensity.

EGFR-mFc [3] = target: T1, EGFR-mFc (Homo sapiens, UniProt P00533); experiment: SPR (BIACORE) binding kinetics, receptor-capture format; conditions: 37° C., EGFR-mFc captured, NB=no binding
Procedure: as §3

EGFR-mFc [4] = target: T1, EGFR-mFc; experiment: SPR (BIACORE) binding kinetics, mAb-capture format; conditions: 37° C., NB=no binding
EGFRvIII-mFc [5] = experiment: SPR (BIACORE) binding kinetics, mAb-capture format; set-up: species or system human; conditions: 37° C., NB=no binding
EGFRvIII-mFc [6] = format: binding, human; conditions: 37° C., receptor-capture, EGFRvIII-mFc captured
Procedure: as §3

EGFR-mmh = EGFR-mmh (Homo sapiens, UniProt P00533); experiment: SPR (BIACORE) binding kinetics, mAb-capture format; conditions: 37° C., NB=no binding

B1: H1H2194P: human IgG1 Fc anti-EGFRvIII antibody; HCVR/LCVR SEQ ID NOs 2/10 (antibody, V domains shown)
VH: QVQLVQSGAEVKKPGASVKVSCKASGYTFTSYDINWVRQATGQGLEWMGWINPNSDYTGYVQKFQGRVTMTRDTSISTAYMELSSLRSEDTAVYYCATSRWSEHFHHWGQGTLVTVSS
VL: DIVMTQSPDSLAVSLGERATINCKSSQSVLYSSNNKNYLAWYQHKPGQPPNLLIYWASTRESGVPDRFSGSGSGTDFTLTISSLQAEDVAVYYCHQYYSTPFTFGPGTKVDIKR
modifications: human IgG1 Fc
Question: Which results are given for B1?
Answer: EC50 (Control peptide): > 10 nM; EC50 [1]: > 10 nM; EC50 (N-term biotin J-peptide): > 10 nM; EC50 (C-term biotin J-peptide): > 10 nM; EC50 [2]: > 10 nM; ka (EGFRvIII-mmh; analyte EGFRvIII-mmh (monomeric)): 81000 M⁻¹ s⁻¹; kd (EGFRvIII-mmh; analyte EGFRvIII-mmh): 0.00137 s⁻¹; Parental HEK293 MFI (HEK293 cells): 981; ka (EGFR-mFc [3]): 187000 M⁻¹ s⁻¹; kd (EGFR-mFc [3]): 7.07e-05 s⁻¹; ka (EGFR-mFc [4]; analyte EGFR-mFc (dimeric)): 81000 M⁻¹ s⁻¹; kd (EGFR-mFc [4]; analyte EGFR-mFc): 0.000199 s⁻¹; ka (EGFRvIII-mFc [5]; analyte EGFRvIII-mFc (dimeric)): 95400 M⁻¹ s⁻¹; kd (EGFRvIII-mFc [5]; analyte EGFRvIII-mFc): 0.000222 s⁻¹; ka (EGFRvIII-mFc [6]): 188000 M⁻¹ s⁻¹; kd (EGFRvIII-mFc [6]): 7.38e-05 s⁻¹; ka (EGFR-mmh; analyte EGFR-mmh (monomeric)): 76000 M⁻¹ s⁻¹; kd (EGFR-mmh; analyte EGFR-mmh): 0.00096 s⁻¹
